PubChem BioAssay AID1460 (National Center for Advancing Translational Sciences (NCATS), 2008)
Screen size: about 270,000 compounds; about 5,800 (2.1%) were called active. This list was built around the results that the source calls inconclusive (neither active nor inactive); the mix of calls is not that of the screen. Calls follow the shape of the dose curve; as a rule, active = well fitted inhibition curve with a large enough effect; inconclusive = small, poorly fitted or top-dose-only effect; inactive = flat fitted curve, though single readings scatter. A potency beside an inconclusive call is a rough fit, not a confirmed value.

Each compound was assayed against Microtubule-associated protein tau (Homo sapiens) (UniProt P10636) (assay: qHTS for Inhibitors of Tau Fibril Formation, Thioflavin T Binding). Conditions: recombinant tau K18 P301L (four-repeat tau fragment), heparin-induced fibrillization, ThT fluorescence; series mostly up to 57.4 µM; activity, negative = inhibition: at the top concentration.
Chain of UniProt P10636 (P10636 whole entry, looked up, the tested form may be a part): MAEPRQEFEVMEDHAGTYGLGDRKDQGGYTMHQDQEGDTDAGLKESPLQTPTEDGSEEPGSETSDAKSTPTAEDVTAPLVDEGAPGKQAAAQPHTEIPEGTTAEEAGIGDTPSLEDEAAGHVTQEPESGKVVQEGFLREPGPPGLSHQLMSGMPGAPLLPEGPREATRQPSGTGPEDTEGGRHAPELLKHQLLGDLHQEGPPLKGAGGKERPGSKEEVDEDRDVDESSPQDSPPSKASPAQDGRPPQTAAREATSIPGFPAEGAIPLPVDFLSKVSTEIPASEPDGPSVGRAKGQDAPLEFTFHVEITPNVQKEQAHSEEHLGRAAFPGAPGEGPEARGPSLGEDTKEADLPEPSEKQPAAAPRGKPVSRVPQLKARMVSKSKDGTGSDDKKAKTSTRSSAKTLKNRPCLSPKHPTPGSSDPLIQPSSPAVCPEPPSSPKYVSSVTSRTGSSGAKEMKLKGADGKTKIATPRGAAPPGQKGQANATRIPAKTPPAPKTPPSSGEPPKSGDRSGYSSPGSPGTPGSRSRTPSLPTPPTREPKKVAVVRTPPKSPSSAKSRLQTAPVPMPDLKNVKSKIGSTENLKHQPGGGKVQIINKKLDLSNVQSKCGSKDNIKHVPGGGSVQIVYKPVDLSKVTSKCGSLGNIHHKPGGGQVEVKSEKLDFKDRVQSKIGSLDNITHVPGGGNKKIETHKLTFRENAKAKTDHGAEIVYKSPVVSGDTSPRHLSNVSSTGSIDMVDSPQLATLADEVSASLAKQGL
Summary of the method: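 Tau K18 P301L fragment (15 uM unlabeled plus 0.24 uM Alexa 594-labeled) in 100 mM sodium acetate pH 7 with compound, fibrillization induced by 20 uM heparin for 6 hr at 37 C. Thioflavin T (30 uM) added, fluorescence read after 1 hr (ex 450, em 510 nm).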
% is scaled to controls: 0 for no effect and ±100 for the full control effect; potency is read from the fitted curve at half-maximal effect; tags tell the direction and shape of the fitted curve.
Also: nearly all actives have a fitted effect of over 55% in size.

SMILES	activity, negative = inhibition	Potency
Cc1cc(C)nc(SCC(=O)Nc2ncc3c(n2)CC(C)(C)CC3=O)n1	inactive: -3.18%	
CCc1nc(Nc2ccc3nccnc3c2)c2oc3ccccc3c2n1		inconclusive: 8.91 µM [inhibitor, partial curve]
CCCCC(CC)CNC(=O)C1CCC(CNS(=O)(=O)c2cccc3nsnc23)CC1 (stereo not drawn)		inconclusive: 28.2 µM [inhibitor, single point]
Cc1cc(C)cc(OCCCn2c(CCNC(=O)C3CCCCC3)nc3ccccc32)c1		inconclusive: 39.8 µM [inhibitor, single point]
CNC(=S)N/N=C/c1ccc(OCC(=O)Nc2c(C)cc(C)cc2C)c(OC)c1		inconclusive: 14.1 µM [inhibitor, partial curve]
CCC(=O)Nc1ccc(-c2nnc3c4ccccc4c(C)nn23)cc1	inactive: -14.3%	
COc1ccc2o/c(=N/NC(=O)c3cccs3)c(C(N)=O)cc2c1		inconclusive: 8.91 µM [inhibitor, partial curve]
CC(=O)Nc1ccc(-c2csc(NC(=O)C3CC(=O)N(c4ccc5c(c4)OCCO5)C3)n2)cc1 (stereo not drawn)		inconclusive: 39.8 µM [inhibitor, single point]
O=C(C1=C[C@H](c2ccc3c(c2)OCO3)C[C@H](OCCCCO)O1)N1CCN(Cc2ccccc2)CC1		inconclusive: 25.1 µM [inhibitor, single point]
COc1ccc([C@H]2[C@H](C(=O)C(C)(C)C)N3N=Cc4ccccc4C3[C@]23N=C(c2ccccc2)OC3=O)cc1 (stereo partly drawn)		inconclusive: 15.8 µM [inhibitor, partial curve]
CCOC(=O)N1CCN(C(=O)CN(C2CCCCC2)S(=O)(=O)c2ccc(C)cc2)CC1	inactive: 5.14%	
CCCc1cc(=O)[nH]c(Nc2ccc(O)cc2)n1		inconclusive: 44.7 µM [inhibitor, partial curve, poor fit]
O=C(NCc1nc2ccccc2[nH]1)C1=C[C@H](c2ccc3c(c2)OCO3)C[C@H](OCc2ccc(CO)cc2)O1		inconclusive: 31.6 µM [inhibitor, single point]
Cc1cc(C)c(C#N)c(SCc2[nH]nc3c2C(c2ccc(F)cc2)C(C#N)=C(N)O3)n1 (stereo not drawn)		inconclusive: 28.2 µM [inhibitor, single point]
CCc1ccccc1Nc1nc(N)nc(CSCC(=O)Nc2ccc(C)c(C)c2)n1		inconclusive: 35.5 µM [inhibitor, single point]
CC(=O)c1ccc(NC(=O)CSc2cn(CC(=O)N3CCCCCC3)c3ccccc23)cc1		inconclusive: 31.6 µM [inhibitor, single point]
Cc1cccc(-c2nc3c4ccccc4nc(NCc4ccc(Cl)cc4)n3n2)c1	inactive: 4.52%	
COc1ccc2c(c1)c(C(=O)N1CCN(C)CC1)c(C)n2-c1ccccc1	inactive: 1.95%	
COc1cc(/C=N/NC(N)=O)c(Br)cc1OCC(=O)Nc1ccccc1C		inconclusive: 7.08 µM [inhibitor, full curve]
Cc1nnc(SCC(=O)OC2CC(C)CCC2C(C)C)[nH]c1=O (stereo not drawn)	inactive: -14.2%	
O=C(CC1C(=O)OCCN1Cc1ccccc1)Nc1cccc(C(F)(F)F)c1 (stereo not drawn)		inconclusive: 7.94 µM [inhibitor, single point]
CCc1sc(Nc2cccc(Cl)c2C)nc1-c1cc2cccc(OC)c2oc1=O		inconclusive: 22.4 µM [inhibitor, single point]
Cn1c(-c2ccccc2)c(/C=N/NC(=O)c2ccc(O)cc2)c2ccccc21		inconclusive: 11.2 µM [inhibitor, partial curve]

SMILES	activity, negative = inhibition	Potency
CCN(CC)S(=O)(=O)c1cccc(C(=O)N/N=C/c2ccc(O)c(O)c2O)c1		active: 3.16 µM
Oc1ccc(Cl)cc1C1=Nc2ccccc2N=C(c2cccc(Br)c2)C1	inactive: 0.458%	
CCOc1ccc(CC(=O)NNC(=S)Nc2ccccc2)cc1Br		inconclusive: 17.8 µM [inhibitor, partial curve]
COc1cccc(C2C(C(=O)c3cccs3)=C(O)C(=O)N2CCCn2ccnc2)c1OC (stereo not drawn)	inactive: -9.82%	
CC(=O)Nc1sc2c(c1C(c1ccc(Cl)cc1)N1CCOCC1)CCCC2 (stereo not drawn)		inconclusive: 39.8 µM [inhibitor, partial curve, poor fit]
COc1ccc(CNC(=O)/C(C)=C\C(=O)O)cc1	inactive: -14.8%	
CC1=C(C(=O)Nc2ccccc2)C(c2sccc2C)n2nnnc2N1 (stereo not drawn)	inactive: -7.24%	
N#C/C(=C(/O)c1cc2ccccc2o1)c1nc2ccccc2s1		active: 6.31 µM
O=C(Cn1cc(SCc2ccc(C(F)(F)F)cc2)c2ccccc21)N1CCCC1		inconclusive: 25.1 µM [inhibitor, single point]
Cc1oc(-c2cc(F)ccc2F)nc1CN1CCN(c2ncnc3ccccc23)CC1		inconclusive: 17.8 µM [inhibitor, partial curve]
CCN1C(=O)[C@H]2[C@H]3[C@H](O)[C@H](O)C/C(=N/OC/C=C(\C)CCC=C(C)C)[C@@H]3CC[C@@H]2C1=O	inactive: -4.86% [at 11.5 µM]	
COc1ccc(Br)c2oc(S)cc(=O)c12		inconclusive: 14.1 µM [inhibitor, partial curve]
COc1ccc(Nc2nc(OC)nc(N3CCN(c4ccc(OC)cc4)CC3)n2)cc1		inconclusive: 10 µM [inhibitor, partial curve]
CN(C)c1ccc(-c2nc(N(C)C)c3ccccc3n2)cc1		inconclusive: 8.91 µM [inhibitor, partial curve]
Cc1ccc(-c2cc(C(=O)NCCc3ccccc3)c3c(-c4ccc(C)cc4)[nH]nc3n2)cc1	inactive: 4.98%	
O=C1c2cccc3c([N+](=O)[O-])c(O)cc(c23)C(=O)N1Nc1ccccc1		active: 5.01 µM
O=C(Nc1ccccc1)c1cc2ccccc2o1	inactive: -1.83%	
CCS(=O)(=O)c1ccc2oc(SCC(=O)Nc3ccc(OC)cc3)nc2c1	inactive: -8.07%	
COc1ccc(-c2ccc3c(N)c(C(=O)Nc4cc(F)ccc4C)sc3n2)cc1		inconclusive: 1.58 µM [inhibitor, full curve]
CCCCN1C(=O)C2(NNc3ccccc3O2)c2ccccc21 (stereo not drawn)		active: 11.2 µM
O=C(COC(=O)c1ccccc1C(=O)c1ccc(Cl)c([N+](=O)[O-])c1)NC1CCCCCC1		inconclusive: 20 µM [inhibitor, single point]
c1ccc(-c2ccc(-c3nc(-c4cccnc4)no3)cc2)cc1		inconclusive: 2.82 µM [inhibitor, full curve, poor fit]
COc1cccc(N/C(SCc2ccccc2C)=C(/C#N)C(=O)NCc2cccs2)c1	inactive: -5.27%	

SMILES	activity, negative = inhibition	Potency
CCC(=O)N(Cc1cc(=O)[nH]c2ccccc12)c1cccc(C)c1	inactive: -17.7%	
COc1ccc(CCSc2nnc(C3CCCCC3)n2N)cc1		inconclusive: 39.8 µM [inhibitor, partial curve]
CC1CC1c1ccc(/C=C(\C#N)C(=O)Nc2ccc(Cl)cc2)o1 (stereo not drawn)		inconclusive: 10 µM [inhibitor, partial curve]
CCOc1ccc(N2C(=O)N(Cc3ccc(C)cc3C)c3ccccc3S2(=O)=O)cc1	inactive: 11.2%	
CCOC(=O)C1=C(C)N=c2s/c(=C\c3cc(OC)c(OC)c(OC)c3)c(=O)n2C1/C=C/c1ccccc1 (stereo not drawn)	inactive: -16.2%	
CC(NC(=O)c1cccs1)c1ccc2c(c1)OCO2 (stereo not drawn)	inactive: -3.64%	
COc1ccccc1/C=C/C(=O)c1ccccc1		inconclusive: 17.8 µM [inhibitor, partial curve]
Cc1ccc(N2CCN(CC(O)COc3cccc(C)c3)CC2)cc1 (stereo not drawn)		inconclusive: 14.1 µM [inhibitor, partial curve]
Cc1nc2c(-c3ccc(F)cc3)c(C)nn2c(C)c1CCC(=O)NCc1ccc(Cl)cc1	inactive: 2.42%	
CCOc1ccc(NC(=O)c2ccc(-c3ccccc3)s2)cc1		inconclusive: 0.1 µM [inhibitor, full curve, poor fit]
Cc1ccc2nc(C)cc(C(=O)OCC(=O)c3ccc(Cl)c([N+](=O)[O-])c3)c2c1		inconclusive: 28.2 µM [inhibitor, single point]
COc1ccccc1C1=NNC(=Nc2cccc(S(=O)(=O)N(C)C)c2)SC1		inconclusive: 6.31 µM [inhibitor, partial curve]
COc1ccccc1N1CCN(C(=O)Cn2c(=O)nc(-c3ccccc3)c3cc(Cl)ccc32)CC1	inactive: -7.54%	
CCOC(=O)c1ccc(NC(=O)CSc2nnc(CNc3ccc(OC)cc3)n2C)cc1		active: 14.1 µM
CC(=O)c1ccc(OCC(O)CN2CCN(CC(O)COc3ccc(C(C)=O)cc3)CC2)cc1 (stereo not drawn)		inconclusive: 7.94 µM [inhibitor, partial curve]
Cc1ccc(C(=O)COC(=O)c2ccc(-c3cnc4ccccc4n3)cc2)cc1C		inconclusive: 3.16 µM [inhibitor, full curve]
COc1ccc(S(=O)(=O)Nc2cc3c(cc2NCc2ccccc2)n(C)c(=O)n3C)cc1OC		inconclusive: 15.8 µM [inhibitor, partial curve]
COc1ccc(/C(C)=N/OCC(=O)Nc2nc3ccccc3s2)cc1OC		inconclusive: 14.1 µM [inhibitor, partial curve]
Cc1ccc(N2CCN(C(=S)c3ccc(N(C)C)cc3)CC2)cc1		inconclusive: 15.8 µM [inhibitor, partial curve]
O=[N+]([O-])c1ccc2nc(SCc3cn4cccnc4n3)[nH]c2c1		inconclusive: 15.8 µM [inhibitor, partial curve]
Cc1ccc(S(=O)(=O)c2nc(-c3cccs3)oc2SCC(N)=O)cc1		inconclusive: 31.6 µM [inhibitor, partial curve]
Cc1cnc(C(=O)Nc2ccc(C(C)C)cc2)cn1		inconclusive: 3.55 µM [inhibitor, full curve, poor fit]
